Laboratory results reported in PubChem BioAssay AID1030 (National Center for Advancing Translational Sciences (NCATS), 2008).
The campaign covered roughly 220,000 compounds. About 16,000 (7.3%) were called active. The inconclusive results got no clear call from the source; some entries with a clear call stand among them for comparison. Calls follow the shape of the dose curve; as a rule, active = well fitted inhibition curve with a large enough effect (not every such curve was filed as active); inconclusive = small, poorly fitted or top-dose-only effect, or another doubt; inactive = no such curve, though single readings can be large or run the other way. Potencies of inconclusive entries are left out as doubtful fits.

Biological target: Aldehyde dehydrogenase 1A1 (Homo sapiens) (UniProt P00352)
Assay: qHTS Assay for Inhibitors of Aldehyde Dehydrogenase 1 (ALDH1A1)
Conditions: Purified ALDH1A1, NADH fluorescence, propionaldehyde substrate; series mostly up to 75.3 µM
Potency is read from the fitted curve at half-maximal effect; tags tell the direction and shape of the fitted curve.

UniProt P00352, sequence (P00352 whole entry, looked up): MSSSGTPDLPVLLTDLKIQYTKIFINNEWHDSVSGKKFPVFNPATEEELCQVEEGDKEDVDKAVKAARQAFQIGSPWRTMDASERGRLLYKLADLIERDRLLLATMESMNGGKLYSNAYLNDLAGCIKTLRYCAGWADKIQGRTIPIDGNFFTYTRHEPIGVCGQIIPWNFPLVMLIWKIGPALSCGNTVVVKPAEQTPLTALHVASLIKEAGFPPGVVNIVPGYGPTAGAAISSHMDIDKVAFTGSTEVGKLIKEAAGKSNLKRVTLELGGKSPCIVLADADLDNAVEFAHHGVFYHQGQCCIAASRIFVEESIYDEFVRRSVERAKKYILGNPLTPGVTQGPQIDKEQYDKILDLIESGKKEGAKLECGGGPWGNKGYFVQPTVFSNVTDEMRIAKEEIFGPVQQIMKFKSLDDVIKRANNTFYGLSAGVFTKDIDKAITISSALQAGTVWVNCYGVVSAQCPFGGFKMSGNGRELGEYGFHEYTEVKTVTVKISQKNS

Row | SMILES | Potency
1 | CCN(CC)C(=O)CSc1nc(-c2ccc(C)cc2)nc2c1COC(C)(C)C2 | inconclusive [inhibitor, single point]
2 | CCN1C(=O)C(CC(=O)Nc2ccc(OC)cc2)N(CCc2ccc(OC)cc2)C1=S (centres undefined) | active: 2.24 µM
3 | Cc1ccc(C2C(C#N)=C(N)N(c3ncn[nH]3)C3=C2C(=O)CC(C)(C)C3)cc1 (centres undefined) | inactive
4 | COC(=O)C1=CN(C)C=C(C(=O)OC)C1c1ccsc1 | inconclusive [inhibitor, partial curve]
5 | COc1ccc(C(C)=O)cc1CSc1nc2cc(C(=O)O)ccc2c(=O)n1Cc1ccccc1 | active: 20 µM
6 | CCCn1c(-c2ccc(F)cc2)nc2c(N3CCC(N(C)C)C3)nc(C)nc21 (centres undefined) | inconclusive [inhibitor, single point]
7 | COc1ccc(S(=O)(=O)N2CCCC(C(=O)NCCC3=CCCCC3)C2)cc1 (centres undefined) | inactive
8 | O=C(O)CC1Sc2nc3ccccc3n2C1=O (centres undefined) | inactive
9 | CCOC(=O)c1sc(N)c(C(=O)OCC)c1COC(=O)C1CC(=O)N(Cc2ccco2)C1 (centres undefined) | active: 20 µM
10 | CCSc1nnc(NC(=O)[C@@H](NC(=O)c2cc(OC)cc(OC)c2)C(C)C)s1 | inactive
11 | COc1ccc(CCN2C(=O)C3C4CC(C5C(C(N)=O)=NOC45)C3C2=O)cc1OC (centres undefined) | inconclusive [inhibitor, single point]
12 | COc1ccc(OC)c(N2Cc3cc(C)c(C)cc3C2)c1 | inconclusive [inhibitor, single point]
13 | Cc1ccccc1-n1c(SCc2c(C)noc2C)nnc1-c1ccncc1 | inconclusive [inhibitor, single point]
14 | Cc1cnc(CNc2ncncc2-c2ccccc2C(F)(F)F)cn1 | inconclusive [inhibitor, partial curve]
15 | COc1ccc(/C(C)=N/NS(=O)(=O)c2ccccc2)c(OC)c1 | inconclusive [inhibitor, single point]
16 | O=C1CC(c2ccccc2)CC2=C1C=Nc1ccccc1N2 (centres undefined) | inconclusive [inhibitor, partial curve]
17 | CSc1cc(-c2ccc(Cl)cc2)c(C(=O)NN)s1 | inconclusive [inhibitor, partial curve]
18 | Brc1ccc(-c2nc3ccccc3s2)s1 | inconclusive [inhibitor, single point]
19 | Nn1cc(-c2ccccc2)nc1SCC(=O)NCCN1C(=O)CSC1=O | inconclusive [inhibitor, single point]
20 | COc1ccc(CCNC(=O)CC2SC(=NCCc3ccccc3)NC2=O)cc1 (centres undefined) | active: 28.2 µM
21 | CN1CCC(=NNC(=O)CN(c2cccc(Cl)c2)S(C)(=O)=O)CC1 | inactive
22 | COC(=O)c1nn(-c2ccccc2)c(Sc2ccccc2)c1/C=N/O | inconclusive [inhibitor, single point]
23 | Cc1ccc(S(=O)(=O)/N=C(/Nc2c(C)n(C)n(-c3ccccc3)c2=O)c2ccc(Cl)cc2)cc1 | inconclusive [inhibitor, single point]
24 | CCc1ccc(C2CC(c3ccc(F)cc3)Nc3nc(N)nn32)cc1 (centres undefined) | inconclusive [inhibitor, partial curve, poor fit]
25 | COc1cc(/C=C/C(=O)O)ccc1OCc1ccccc1C#N | inconclusive [inhibitor, single point]

Row | SMILES | Potency
26 | CCc1nnc(NC(=O)CSc2nnc(C3CCCCC3)n2-c2ccccc2)s1 | inconclusive [inhibitor, single point]
27 | Cc1ccc(C)c(OC(=O)c2cncc(Br)c2)c1 | inactive
28 | NC(=O)c1ccc(NC(=O)COC(=O)CCSc2ccccc2)cc1 | inconclusive [inhibitor, single point]
29 | O=c1c([N+](=O)[O-])cc(C(F)(F)F)cn1Cc1c(Cl)cccc1Cl | inactive
30 | CC1(C)CC(=O)C(C=Nc2ccc(C(=O)c3ccccc3)cc2N=CC2=C(O)CC(C)(C)CC2=O)=C(O)C1 | active: 10 µM
31 | Cc1ccc(NNS(=O)(=O)c2ccc(C)cc2)cc1 | active: 6.31 µM
32 | N#CCCN(C(=O)COC(=O)c1ccc2c(=O)n3c(nc2c1)CCC3)c1ccc(F)cc1 | inconclusive [inhibitor, single point]
33 | Cc1cn(C(=O)c2ccccc2)c(=S)n1-c1ccc(Cl)cc1 | inactive
34 | O=C(CN1C(=O)C2CCCCC2C1=O)OCn1nnc2ccccc2c1=O (centres undefined) | inconclusive [inhibitor, single point]
35 | CC1C/C(=N\NC(=O)c2ccc(NS(=O)(=O)c3ccc(Br)cc3)cc2)CC(C)(C)C1 (centres undefined) | active: 3.55 µM
36 | O=C(Nc1nc2c(s1)CN(Cc1ccccc1)CC2)c1c(F)cccc1F | active: 18.9 µM
37 | CCOC(=O)c1sc2nc(SCC(=O)N(CC)CC)n(CCCN3CCCC3=O)c(=O)c2c1C | inactive
38 | Cc1cccc(NC(=O)c2ccc(N3CCOCC3)c([N+](=O)[O-])c2)n1 | inconclusive [inhibitor, single point]
39 | Oc1ccc2ccccc2c1CNn1cnnc1 | inconclusive [inhibitor, single point]
40 | CCOC(=O)/C(C#N)=C/Nc1cc(OC)ccc1OC | inconclusive [inhibitor, partial curve]
41 | COc1ccc(-c2nc3cnc(Nc4cccc(OC)c4)nc3n(C[C@H]3CCCO3)c2=O)cc1 | inactive
42 | CC(=O)Nc1ccc(NC(=O)C(C)OC(=O)c2ccc(C)s2)cc1 (centres undefined) | inconclusive [inhibitor, single point]
43 | Cn1c(SCc2c(F)cccc2Cl)nnc1-c1cnccn1 | active: 12.6 µM
44 | COC(=O)c1c(NC(=S)NN2CCN(C)CC2)sc2c1CCC(C)C2 (centres undefined) | inconclusive [inhibitor, single point]
45 | CCNc1ncc2nc(-c3cn(C)c4ccccc34)c(=O)n(Cc3cccc(OC)c3)c2n1 | inconclusive [inhibitor, partial curve]
46 | O=C(OCC(=O)N1CCc2ccccc2C1)c1ccc(N2CCOCC2)c([N+](=O)[O-])c1 | active: 20 µM
47 | COc1ccc(S(=O)(=O)NCc2ccco2)cc1-c1nnc2c3ccccc3c(C)nn12 | inactive
48 | O=[N+]([O-])c1ccc(C(=S)N2CCN(c3ccc(F)cc3)CC2)cc1 | active: 10 µM
49 | COC(=O)Cc1c(C)c2ccc(OCC(=O)N(C)C)cc2oc1=O | inconclusive [inhibitor, partial curve]
50 | Cc1sc(NC(=O)c2ccco2)c(C(c2cccnc2)N2CCN(CCO)CC2)c1C (centres undefined) | inactive

Row | SMILES | Potency
51 | CC(C)(C)c1ccc(S(=O)(=O)N2CCSC2)cc1 | inconclusive [inhibitor, single point]
52 | CC1CCc2sc(-c3n[nH]c(=S)o3)cc2C1 (centres undefined) | inconclusive [inhibitor, partial curve]
53 | COc1ccc(NC(=O)C(C)Sc2ccccc2)cc1 (centres undefined) | inactive
54 | Clc1ccc(-c2noc(CSc3nnc(Cc4cccs4)n3-c3ccccc3)n2)cc1 | inconclusive [inhibitor, single point]
55 | COc1ccc(OCCC(=O)Nc2nccs2)cc1 | inactive
56 | CCOCCCNC(=O)c1ccccc1SCC | inactive
57 | CCCOc1ccc(C(CC(=O)O)NC(=O)c2sc3ccccc3c2Cl)cc1 (centres undefined) | inconclusive [inhibitor, single point]
58 | O=C(O)c1ccc(CSc2nnc(-c3ccco3)o2)cc1 | inconclusive [inhibitor, single point]
59 | CCOc1ccccc1N(CC(=O)NC(C)(C)C)C(=O)Cn1nnc(-c2ccc(C)o2)n1 | inconclusive [inhibitor, single point]
60 | CC1(C)CC(=O)C2=C(C1)Oc1nc3ccccc3cc1C2C(C#N)C#N (centres undefined) | inactive
61 | O=c1c(-c2ccc(F)cc2)nc2cncnc2n1Cc1ccccc1 | inactive
62 | O=C(CCCC(=O)N/N=C\c1ccccn1)N/N=C\c1ccccn1 | inactive
63 | O=C(CSc1nnc(Cc2ccccc2)n1Cc1ccco1)NC12CC3CC(CC(C3)C1)C2 | inconclusive [inhibitor, partial curve]
64 | Oc1ccc(C2Nc3cccc4cccc(c34)N2)c(O)c1 | inconclusive [inhibitor, single point]
65 | Cn1ncc2c(NCc3cccc(C(F)(F)F)c3)c(C(=O)O)cnc21 | inactive
66 | COc1ccc(-c2nnc3ccc(SCC(=O)Nc4nc5ccc(C)cc5s4)nn23)cc1OC | inconclusive [inhibitor, single point]
67 | O=C(CSc1nnc(-c2ccco2)n1CC1CCCO1)c1ccc(F)cc1 (centres undefined) | inconclusive [inhibitor, single point]
68 | CNC(=O)/C(C#N)=C/c1c(N2CC(C)OC(C)C2)nc2ccccn2c1=O (centres undefined) | inactive
69 | CC(C)/C=N/NC(=O)c1ccc(Cl)cc1 | inconclusive [inhibitor, single point]
70 | COC(=O)c1cc(S(=O)(=O)N2CCOCC2)ccc1Sc1ccccc1N | inconclusive [inhibitor, single point]
71 | CN1C(=O)C(O)(CC(=O)c2ccncc2)c2ccccc21 (centres undefined) | inconclusive [inhibitor, single point]
72 | COc1ccccc1C(=O)NC(=Nc1nc2ccccc2o1)NC(=O)c1ccccc1OC | inactive
73 | Cc1cc(C)n(C(=O)COc2ccc(Cl)cc2Cl)n1 | inactive
74 | CN1/C(=C/C(=O)C2CCC2)Sc2ccccc21 | active: 3.55 µM
